From article PMC6527154, “Novel MASP-2 inhibitors developed via directed evolution of human TFPI1 are potent lectin pathway inhibitors” (The Journal of Biological Chemistry, 2019)

Tests used:
[1] = biological target: T1, three-domain catalytic fragment of human MASP-2 (hMASP-2cf) (human, UniProt O00187 298-686); assay: enzyme inhibition assay (equilibrium inhibitory constant KI from residual activity); constant enzyme co-incubated with serial dilutions of inhibitor for 2 h at room temperature; 20 mM HEPES, 145 mM NaCl, 5 mM CaCl2, 0.05% Triton X-100, pH 7.5; residual activity on 250 μM Z-Lys-SBzl with DTNB at 410 nm; fit of free enzyme by Eq. 1; details: both partners purified
T1 construct: also called Human MASP-2cf; source: recombinant, produced as described previously (60–62)

[2] = biological target: T2, catalytic fragment of rat MASP-2 (rMASP-2cf) (rat, UniProt Q9JJS8 298-685); assay: as above; details: both partners purified
T2 construct: extra Met-Thr dipeptide at the N terminus; Rat MASP-2, catalytic fragment from Gln-298 to Phe-685 according to UniProt entry Q9JJS8; also called Rat MASP-2cf; source: recombinant, produced similarly to hMASP-2cf (61)
T2 sequence (Q9JJS8 other isoform, or with tags, fused parts or gaps): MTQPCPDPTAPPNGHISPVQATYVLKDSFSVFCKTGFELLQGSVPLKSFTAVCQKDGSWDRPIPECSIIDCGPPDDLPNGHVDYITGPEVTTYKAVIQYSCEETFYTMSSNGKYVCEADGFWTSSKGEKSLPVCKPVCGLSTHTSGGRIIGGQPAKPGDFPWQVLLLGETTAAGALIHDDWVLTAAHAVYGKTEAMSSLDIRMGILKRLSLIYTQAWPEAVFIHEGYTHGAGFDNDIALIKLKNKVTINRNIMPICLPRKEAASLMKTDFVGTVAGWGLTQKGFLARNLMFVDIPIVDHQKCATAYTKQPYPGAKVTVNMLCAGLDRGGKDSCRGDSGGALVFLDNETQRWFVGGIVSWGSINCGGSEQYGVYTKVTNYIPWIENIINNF

T1 sequence (O00187 298-686): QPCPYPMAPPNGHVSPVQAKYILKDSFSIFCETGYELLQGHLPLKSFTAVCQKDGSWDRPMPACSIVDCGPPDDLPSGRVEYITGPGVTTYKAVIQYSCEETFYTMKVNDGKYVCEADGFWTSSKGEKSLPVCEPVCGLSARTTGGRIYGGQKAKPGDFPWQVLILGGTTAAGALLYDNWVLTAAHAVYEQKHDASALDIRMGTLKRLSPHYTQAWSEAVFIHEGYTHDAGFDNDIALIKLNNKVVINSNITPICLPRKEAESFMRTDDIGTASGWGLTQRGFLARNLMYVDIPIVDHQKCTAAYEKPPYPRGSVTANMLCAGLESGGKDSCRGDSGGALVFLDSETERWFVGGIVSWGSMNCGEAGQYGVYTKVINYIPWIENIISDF

Ki [1]: 1.88 µM
Ki [2]: 0.185 µM
B1: second Kunitz domain of human tissue factor pathway inhibitor 1 (TFPI1 D2) (domain or fragment)
chain: not shown
notes: Second Kunitz domain (D2) of human TFPI1, […]; also called TFPI D2; source: E. coli, purified to homogeneity (S100A4 fusion expression vector)
